# “And” between values parts separate entries of the source, which are not always exact repeats. Equal values may be shown once. Among all 390,000 compounds or so, about 930 (0.24%) were called active. This list was built around the results that the source calls inconclusive (neither active nor inactive); the mix of calls is not that of the screen. Calls come from the whole dose curve; as a rule, active = well fitted activation curve with a large enough effect; inconclusive = small, poorly fitted or top-dose-only effect; inactive = no such curve, though single readings can be large or run the other way. A potency beside an inconclusive call is a rough fit, not a confirmed value.
# Assay: qHTS for Suppressors of FUS Proteinopathy: Primary screen using FUS-linked yeast assay; note: nearly all actives have a fitted effect of over 55% in size;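 for growth rescue (activation): plate controls were DMSO vehicle for no effect and reference control for full effect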
# Settings: S. cerevisiae FUS-expressing, OD600, 24 h; Potency: growth rescue; growth rescue (activation): at 76.6 µM (top of the series)
# Procedure, shortened: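 Compound concentration series was pinned onto galactose-induced FUS-expressing yeast seeded at OD 0.005. Plates sat 24hr at 30C; absorbance at 600 nm gave growth. DMSO served as background control.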
# Potency is the fitted concentration of half-maximal effect; tags give direction and shape of the fitted curve.
Structure (SMILES),Potency,growth rescue (activation)
Cc1ccc(/C(N)=N/OC(=O)c2ccco2)cc1,inactive,
CN(Cc1ccccc1)C(=O)c1ccc(NC(=O)Cc2ccc(NC(=O)C3CCN(C(=O)c4ccccc4)CC3)cc2)cc1,"inconclusive: 50.1 µM [activator, single point]",
CC(C)(C)C1CCc2nc(NC(=O)COc3ccc(F)cc3)sc2C1 (stereo not drawn),inactive,
CCC(=O)Nc1ccccc1-c1nc2ccccc2n(C(CC)C(=O)Nc2cccc(C(C)=O)c2)c1=O (stereo not drawn),"inconclusive: 25.1 µM [activator, partial curve, poor fit]",
O=C(CSc1nnc(Cc2cccs2)n1-c1ccc(Cl)cc1)Nc1ccc(OCc2ccccc2)cc1,inactive,
COc1ccccc1N1CCN(C(=O)C2CCN(S(=O)(=O)c3ccc(Cl)cc3)CC2)CC1,"inconclusive: 25.1 µM [activator, partial curve, poor fit]",
O=C(c1ccco1)[C@@H]1[C@@H]2C(=O)N(c3ccccc3)C(=O)[C@@H]2C2c3ccccc3C=CN21 (stereo partly drawn),"inconclusive: 44.7 µM [activator, partial curve, poor fit]",
C[C@@H](OC(=O)c1[nH]cnc1C(=O)NCc1ccc(CNC(=O)OC(C)(C)C)cc1)c1ccccc1,"inconclusive: 17.8 µM [activator, partial curve]",
COc1ccc(C2C(C#N)=C3NC(=O)c4c(sc5c4CCCCC5)N3C3=C2C(=O)CC(C)(C)C3)cc1 (stereo not drawn),"inconclusive: 14.1 µM [activator, partial curve, poor fit]",
COc1ccccc1CN1CCN(C(=O)c2ccncc2)CC1,inactive,
Cc1cccc(N2C(S)=C(C#N)C(=O)NC2c2ccco2)c1 (stereo not drawn),inactive,
Cc1cc2oc(C(=O)N(Cc3ccccc3)C3CCS(=O)(=O)C3)c(C)c2cc1C (stereo not drawn),"inconclusive: 35.5 µM [activator, single point]",
COc1ccc(NC(=O)C2(C)CCN2Cc2csc3ccccc23)cc1OC (stereo not drawn),inactive,
CCOC(=O)Nc1ccc2c(CNC(C)c3ccccc3OC)cc(=O)oc2c1 (stereo not drawn),"inconclusive: 44.7 µM [activator, partial curve, poor fit]",
COc1cc(-c2cnc3c(NC=O)cc(-c4ccccc4)cn23)cc(OC)c1OC,"inconclusive: 28.2 µM [activator, partial curve, poor fit]",
Cc1ccc2cc(CN(Cc3ccco3)C(=O)c3ccccc3)c(=O)[nH]c2c1C,inactive,
CCn1cc(/C=C/C(=O)NCc2c(C)nn(C)c2C)cn1,inactive,
Cc1ccc2oc(/N=C(\N)NC(=O)C(C)(C)C)nc2c1,inactive,
Cc1cc(=O)oc2c3c(cc(OCC(=O)NCc4ccccc4)c12)OC(C)(C)CC3,"inconclusive: 31.6 µM [activator, single point]",
CCOC(=O)c1ccccc1NCN1C(=O)CSC1=O,inactive,

Structure (SMILES),Potency,growth rescue (activation)
CN(Cc1ccccc1)C(=O)c1ccc(NC(=O)Cc2ccc(NC(=O)C3CCN(C(=O)C4CCC4)CC3)cc2)cc1,"inconclusive: 20 µM [activator, single point]",
CCc1nnc(NS(=O)(=O)c2ccc(NC(=S)NC(=O)/C=C/c3ccc([N+](=O)[O-])cc3)cc2)s1,"inconclusive: 28.2 µM [activator, single point]",
O=C(Nc1ccc(N2C(=O)CC(c3ccccc3)C2=O)c(Cl)c1)c1ccccn1 (stereo not drawn),"inconclusive: 28.2 µM [activator, single point]",
COC(=O)C1=C(C(=O)OC)[C@@H]2N(Cc3ccccc3)c3ccccc3[C@@]23C[C@@H](C(=O)OC)N(C(C)=O)C3=N1,"inconclusive: 28.2 µM [activator, single point]",
Cc1nc(Nc2ccc(F)cc2)[nH]c(=O)c1CCC(C)C,"inconclusive: 8.91 µM [activator, partial curve, poor fit]",
CCN1CCN(Cc2ccc(NC(=O)c3cc(NC(=O)C(=O)c4c[nH]c5ccccc45)cc(OC)c3)cc2C(F)(F)F)CC1,"inconclusive: 31.6 µM [activator, single point] and inconclusive: 28.2 µM [activator, single point]",
Cc1cc(Cl)ccc1NC(=O)CSc1nnc(Cc2cccs2)n1Cc1ccco1,"inconclusive: 22.4 µM [activator, partial curve]",
CCOC(=O)N1CCc2c(sc(NCc3cccs3)c2C(=O)Nc2cc(OC)ccc2OC)C1,"inconclusive: 15.8 µM [activator, partial curve]",
CCCC[C@@H]1CNCCN1CCc1cc(C(F)(F)F)cc(C(F)(F)F)c1,"inconclusive: 31.6 µM [activator, partial curve, poor fit]",
Cc1cc(C)nc(NC(=NCCc2c[nH]c3ccccc23)NC(=O)Nc2ccccc2)n1,"inconclusive: 35.5 µM [activator, single point]",
O=C1CN(C(=O)COc2ccc(Cl)cc2Cl)C(c2ccc(F)cc2)c2cc(F)ccc2N1 (stereo not drawn),"inconclusive: 50.1 µM [activator, single point]",
COC(=O)[C@@]12CCCCN1[C@H](c1ccc(-c3cccc(Cl)c3)c(OC)c1)[C@H]1C(=O)N(C)C(=O)[C@H]12,"inconclusive: 14.1 µM [activator, partial curve]",
COc1ccc(S(=O)(=O)N(C)C[C@H]2Oc3ccc(NS(=O)(=O)c4ccccc4)cc3CC(=O)N([C@H](C)CO)C[C@@H]2C)cc1,"inconclusive: 12.6 µM [activator, partial curve]",
CCc1n[nH]c(=S)n1/N=C/c1ccc(N(C)c2ccccc2)cc1,"inconclusive: 31.6 µM [activator, partial curve, poor fit]",
CC(C)c1ccc(NC(=O)[C@@H](NC(=O)N2CC(=O)Nc3ccccc32)C(C)C)cc1,"inconclusive: 28.2 µM [activator, partial curve, poor fit]",
CCOC(=O)C1=C(C)OC(N)=C(C#N)C1C1CCCCC1 (stereo not drawn),inactive,
CC(=O)Nc1ccc(-c2csc(NC(=O)Cc3cccc(F)c3)n2)cc1,"inconclusive: 31.6 µM [activator, partial curve, poor fit]",
COCCNC(=O)c1c(N)n(CCC2=CCCCC2)c2nc3ccccc3nc12,active: 39.8 µM,
O=C1OCCN1C(=O)[C@H]1[C@H](c2ccc([N+](=O)[O-])cc2)C(c2ccc(F)cc2)=NN1c1ccccc1,"inconclusive: 6.31 µM [activator, full curve, poor fit]",
CCn1cc(C(=O)OCC(=O)N(C)C2CCS(=O)(=O)C2)c(=O)c2ccc(C)nc21 (stereo not drawn),inactive,

Structure (SMILES),Potency,growth rescue (activation)
Cc1cccc2c1-c1sc(C(=O)NCCCN3CCN(c4cccc(Cl)c4)CC3)cc1CO2,"inconclusive: 50.1 µM [activator, single point]",
C[C@@H](O[Si](c1ccccc1)(c1ccccc1)C(C)(C)C)[C@@H]1NC(=O)[C@@H]2C[C@]3(Br)c4ccccc4N(S(=O)(=O)c4ccccc4)[C@@H]3N2C1=O,"inconclusive: 14.1 µM [activator, partial curve]",
Cc1ccc(/C=C/S(=O)(=O)N2CCC(C(=O)O)CC2)cc1,"inconclusive: 1 µM [activator, partial curve, poor fit]",
Cc1ccc(-n2nc(C)c3c(C)cc(=O)n(CC(=O)NCc4ccc(OC(C)C)cc4)c32)cc1,inactive,
O=C(COc1ccc(F)cc1)Nc1cccc(OCc2cc(=O)n3ccccc3n2)c1,inactive,
Cc1nc(Cn2c3ccc(NC(=S)NC4CCCCC4)cc3c(=O)n2C)cs1,"inconclusive: 28.2 µM [activator, single point]",
COc1ccc(Nc2ncc(C(=O)Nc3cc(C)ccc3OC)c3ccccc23)cc1,"inconclusive: 31.6 µM [activator, single point]",
Cc1ccc(C)c(S(=O)(=O)N2CCCC2CNC(=O)c2ccc([N+](=O)[O-])cc2)c1 (stereo not drawn),inactive,
CC(=O)c1ccc(NS(=O)(=O)Cc2ccccc2)cc1,,inconclusive: -2.91% [activator]
CCOC(=O)[C@@H]1[C@H]2COc3cc(OC)ccc3[C@@H]2N2C(=O)N(c3ccc(Br)cc3)C(=O)[C@@]12C,"inconclusive: 28.2 µM [activator, single point]",
CC(C)(C)OC(=O)n1cccc1/C=C1\c2ccccc2C(=O)N1c1ccccc1,"inconclusive: 25.1 µM [activator, partial curve]",
COC(=O)C1C(O)=C(C=Nc2ccc(N)cc2)C(=O)CC1(C)C (stereo not drawn),"inconclusive: 22.4 µM [activator, single point]",
CS(=O)(=O)N[C@@H]1C[C@@H]2O[C@@H](CO)CC[C@@H]2O[C@@H]1CCc1ccc(-c2ccccc2F)cc1,"inconclusive: 22.4 µM [activator, partial curve, poor fit]",
Cn1c(SCC(=O)Nc2sc3c(c2C#N)CCC3)nnc1C1COc2ccccc2O1 (stereo not drawn),"inconclusive: 15.8 µM [activator, partial curve, poor fit]",
CCOC(=O)C1=C(C)N=C2SCCC(=O)N2C1c1ccc(OCc2ccccc2)c(OC)c1 (stereo not drawn),"inconclusive: 22.4 µM [activator, partial curve, poor fit]",
COCCOC(=O)c1ccc(NC(=O)COc2ccc([N+](=O)[O-])cc2)cc1,"inconclusive: 20 µM [activator, partial curve, poor fit]",
CCn1c2c(c(=O)n3ncc(C(=O)N4CCN(c5ccc(C(C)=O)cc5)CC4)c13)CN(Cc1ccc(OC)cc1)CC2,"inconclusive: 44.7 µM [activator, single point]",
COC(=O)c1cccc(N2C(=O)C[C@](Sc3ccc(C)cc3)(C(=O)OC)[C@H]2c2ccccc2)c1,"inconclusive: 39.8 µM [activator, single point]",
